Measured values from the supplement of paper PMC9446081.
Out of some 39,000 compounds screened, about 220 (0.56%) showed activity. The list shows a part of the results.

system: Escherichia coli K-12 BW25113; assay: relative growth (OD600 normalised to plate interquartile mean) (fraction); higher = less growth inhibition, active = 0.2 or less; conditions: 50 µM; LB; incubation time: overnight (16-24 h)
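Also: static incubation at 37 °C against the wild-type strain, values averaged over two biological replicates.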

Row | SMILES | relative growth
1 | O=C(C[C@H]1C[C@H]2c3cc(NC(=O)C4CCOCC4)ccc3O[C@H]2[C@@H](CO)O1)NCCN1CCCCC1 | inactive: 1
2 | Cc1noc(C)c1NC(=O)N(C)C[C@@H]1OCCCC[C@H](C)Oc2ccc(NC(=O)Nc3ccc(F)cc3)cc2C(=O)N([C@H](C)CO)C[C@@H]1C | inactive: 0.999
3 | CC(C)NC(=O)Nc1ccc2c(c1)C(=O)N([C@@H](C)CO)C[C@H](C)[C@H](CN(C)S(=O)(=O)c1ccccc1)O2 | inactive: 0.967
4 | CC(C)NC(=O)N[C@H]1C=C[C@H](CC(=O)O)O[C@H]1CO | inactive: 0.983
5 | Cc1noc(C)c1NC(=O)N(C)C[C@H]1OCCCC[C@@H](C)Oc2ccc(NS(=O)(=O)c3ccc(F)cc3)cc2C(=O)N([C@H](C)CO)C[C@@H]1C | inactive: 0.981
6 | C[C@@H]1CN([C@H](C)CO)C(=O)CCCn2cc(nn2)CO[C@@H]1CN(C)C(=O)Nc1ccc2c(c1)OCO2 | inactive: 1.01
7 | COc1ccc(S(=O)(=O)N(C)C[C@H]2OCCCC[C@H](C)Oc3ccc(NC(=O)Nc4ccccc4)cc3C(=O)N([C@H](C)CO)C[C@H]2C)cc1 | inactive: 1.01
8 | COc1ccc(NC(=O)N(C)C[C@@H]2OCCCC[C@@H](C)Oc3ccc(NC(=O)Nc4ccc(C(F)(F)F)cc4)cc3C(=O)N([C@H](C)CO)C[C@H]2C)cc1 | inactive: 1.02
9 | O=C(CN1CCOCC1)NCC[C@@H]1CC[C@H](NC(=O)c2ccccc2F)[C@H](CO)O1 | inactive: 0.959
10 | O=C(C[C@@H]1CC[C@@H]2[C@H](COC[C@H](O)CN2Cc2cccc(C(F)(F)F)c2)O1)NCCc1ccncc1 | inactive: 1.01
11 | CN1C(=O)c2cc(NC(=O)C3CCC3)ccc2OC[C@H]2O[C@H](CC(=O)NCCc3ccncc3)CC[C@H]21 | inactive: 0.979
12 | C[C@H](CO)N1C[C@H](C)[C@H](CN(C)S(=O)(=O)c2cn(C)cn2)Oc2ccc(NC(=O)Nc3ccc(F)cc3)cc2C1=O | inactive: 0.99
13 | Cc1ccc(-c2ccc(OC(=O)c3ccccc3F)cc2)cc1 | inactive: 0.99
14 | COc1ccc(CN(C)C[C@@H]2OCCCC[C@H](C)Oc3ccc(NC(=O)CCC(F)(F)F)cc3C(=O)N([C@@H](C)CO)C[C@H]2C)cc1 | inactive: 1
15 | CO[C@H](CN(C)S(=O)(=O)c1ccc(C)cc1)[C@@H](C)CN([C@H](C)CO)S(=O)(=O)c1cccc(Cl)c1 | inactive: 1
16 | COc1cccc(CNC(=O)C[C@H]2C=C[C@H](NC(=O)C3CCOCC3)[C@@H](CO)O2)c1 | inactive: 0.984
17 | COc1ccccc1C#Cc1ccc2c(c1)O[C@H](CN(C)Cc1ccncc1)[C@@H](C)CN([C@@H](C)CO)S2(=O)=O | inactive: 1.03
18 | C[C@@H]1CCCCO[C@@H](CN(C)C(=O)Cc2ccccc2)[C@@H](C)CN([C@H](C)CO)C(=O)c2cc(NS(=O)(=O)c3ccc(F)cc3)ccc2O1 | inactive: 1.01
19 | C[C@@H]1CCCCO[C@@H](CN(C)C(=O)c2ccccc2)[C@@H](C)CN([C@H](C)CO)C(=O)c2cc(NS(=O)(=O)c3ccc(F)cc3)ccc2O1 | inactive: 1.02
20 | CCS(=O)(=O)NCC[C@H]1CC[C@H](NC(=O)C2CC2)[C@H](CO)O1 | inactive: 0.989
21 | CN1C(=O)c2cc(NC(=O)c3cnccn3)ccc2OC[C@@H]2O[C@@H](CC(=O)N[C@H]3CCN(Cc4ccccc4)C3)CC[C@H]21 | inactive: 1
22 | C[C@H]1CN([C@@H](C)CO)C(=O)c2cccc(NC(=O)Nc3ccc(C(F)(F)F)cc3)c2O[C@H]1CN(C)Cc1ccc(Cl)c(Cl)c1 | inactive: 1.03
23 | CCOC(=O)[C@@H](N)Cc1ccccc1 | inactive: 1.02

Row | SMILES | relative growth
24 | CCOC(=O)N(C)C[C@@H]1OCc2cnnn2CCCC(=O)N([C@@H](C)CO)C[C@@H]1C | inactive: 1.01
25 | Cc1noc(C)c1NC(=O)Nc1ccc2c(c1)CC(=O)N([C@H](C)CO)C[C@@H](C)[C@@H](CN(C)C(=O)Nc1cccc3ccccc13)O2 | inactive: 0.995
26 | Cc1noc(C)c1NC(=O)Nc1ccc2c(c1)C(=O)N([C@H](C)CO)C[C@@H](C)[C@@H](CN(C)Cc1ccc(C(F)(F)F)cc1)O2 | inactive: 0.937
27 | C[C@H]1CN([C@@H](C)CO)S(=O)(=O)c2ccc(-c3ccncc3)cc2O[C@H]1CN(C)C(=O)c1ccc2c(c1)OCO2 | inactive: 1.02
28 | CCCN(C)C[C@H]1OCCCC[C@@H](C)Oc2ccc(NC(=O)Nc3ccc(F)cc3)cc2C(=O)N([C@@H](C)CO)C[C@H]1C | inactive: 0.967
29 | Cn1ccnc1 | inactive: 0.999
30 | C[C@@H]1CN([C@H](C)CO)C(=O)c2cc(NS(C)(=O)=O)ccc2O[C@H]1CN(C)C(=O)Nc1ccc(F)cc1 | inactive: 1.01
31 | C[C@@H]1CN([C@H](C)CO)C(=O)c2cc(NS(=O)(=O)c3ccccc3)ccc2O[C@@H](C)CCCCO[C@@H]1CN(C)S(=O)(=O)c1ccc(Cl)cc1 | inactive: 1.05
32 | C[C@H]1CN([C@@H](C)CO)C(=O)c2c(c3ccccc3n2C)-c2ccccc2CO[C@@H]1CN(C)Cc1ccc(O)cc1 | inactive: 0.999
33 | C[C@@H]1CCCCO[C@@H](CN(C)C(=O)Nc2cccc3ccccc23)[C@H](C)CN([C@H](C)CO)C(=O)c2cc(NC(=O)c3ccccc3)ccc2O1 | inactive: 1.01
34 | Cc1noc(C)c1NC(=O)N(C)C[C@H]1Oc2ccc(NC(=O)c3ccncc3)cc2C(=O)N([C@@H](C)CO)C[C@H]1C | inactive: 0.955
35 | Cn1cncc1CO | inactive: 0.995
36 | CC(=O)OCC(=O)NCCCOc1cccc(CN2CCCCC2)c1.Cl | inactive: 1.15
37 | C[C@H](CO)N1C[C@H](C)[C@H](CN(C)C(=O)CN2CCOCC2)Oc2ncc(C#CCN(C)C)cc2C1=O | inactive: 1.01
38 | C[C@H]1CN([C@@H](C)CO)C(=O)Cc2cc(NC(=O)CCN3CCOCC3)ccc2O[C@H]1CN(C)C(=O)Nc1ccc(F)cc1 | inactive: 0.987
39 | Cc1[nH]c(=S)c(C#N)c(C)c1Cc1ccc(Cl)cc1Cl | inactive: 1.03
40 | CCOC(=O)c1c(C)cc(O)c(C=O)c1O | active: 0.0424
41 | Cn1cnc(S(=O)(=O)N[C@@H]2CC[C@H](CC(=O)NCC3CC3)O[C@@H]2CO)c1 | inactive: 0.975
42 | CN(C)C(=O)C[C@H]1CC[C@H](NC(=O)C2CCOCC2)[C@@H](CO)O1 | inactive: 1.02
43 | NCc1ccccc1-n1cccn1 | inactive: 1
44 | NS(=O)(=O)c1ccc(F)c(C(=O)O)c1 | inactive: 0.988
45 | Cc1cc(Nc2ncc(Cl)c(Nc3ccccc3S(=O)(=O)C(C)C)n2)c(OC(C)C)cc1C1CCNCC1 | inactive: 0.967
46 | COc1ccc(S(=O)(=O)N(C)C[C@H]2Oc3ccc(N(C)C)cc3C(=O)N([C@@H](C)CO)C[C@H]2C)cc1 | inactive: 1.02

Row | SMILES | relative growth
47 | CC(C)CCCC(C)N (configuration not stated) | inactive: 1.03
48 | CN1C(=O)c2cc(NC(=O)Nc3ccccc3F)ccc2OC[C@H]2O[C@@H](CC(=O)Nc3cccc(Cl)c3)CC[C@@H]21 | inactive: 1
49 | Cn1c(=O)c2[nH]c(C3CCCC3)nc2n(C)c1=O | inactive: 0.997
50 | Cc1noc(C)c1NC(=O)N(C)C[C@H]1Oc2cc(C#CCN(C)C)ccc2S(=O)(=O)N([C@H](C)CO)C[C@H]1C | inactive: 0.99
51 | Cc1ccc(S(=O)(=O)N(C)C[C@H]2OCCCC[C@@H](C)Oc3ccc(NS(C)(=O)=O)cc3C(=O)N([C@H](C)CO)C[C@H]2C)cc1 | inactive: 1.04
52 | C[C@H]1CN([C@@H](C)CO)C(=O)Cc2cc(NC(=O)Nc3cccc4ccccc34)ccc2O[C@H]1CN(C)CC1CCCCC1 | inactive: 1.01
53 | Cc1ccc(S(=O)(=O)Nc2cccc3c2O[C@@H](CN(C)Cc2ccc(-c4ccccc4)cc2)[C@H](C)CN([C@@H](C)CO)C3=O)cc1 | inactive: 0.883
54 | C[C@H](CO)N1C[C@H](C)[C@@H](CN(C)Cc2ccc(C(F)(F)F)cc2)OCCCC[C@H](C)Oc2ccc(NS(=O)(=O)c3ccc(Cl)cc3)cc2C1=O | inactive: 1.05
55 | CC(C)NC(=O)Nc1cccc2c1O[C@@H](CN(C)Cc1ccc(Oc3ccccc3)cc1)[C@H](C)CN([C@H](C)CO)C2=O | inactive: 1
56 | C[C@H](NC(=O)C[C@@H]1CC[C@H](NC(=O)CN2CCOCC2)[C@H](CO)O1)c1ccccc1 | inactive: 1.02
57 | O=c1cc(-c2ccccc2)oc2cc(O)c(O)c(O)c12 | inactive: 0.942
58 | C=CCC[C@@H](Cc1ccc(F)cc1)C(=O)OC[C@@H](Cc1c[nH]c2ccccc12)NC(=O)[C@@H](CC=C)CC(=O)N[C@H](CO)Cc1ccccc1 | inactive: 1.04
59 | C=c1ccccc1=C1NN=C(SCC(=O)OC)O1 | inactive: 0.962
60 | CC(C)NC(=O)N[C@H]1C=C[C@@H](CC(=O)NCCCN(C)C)O[C@H]1CO | inactive: 1.01
61 | Cl.NCC(=O)CCC(=O)O | inactive: 1.22
62 | COc1ccc(S(=O)(=O)N2C[C@H](O)COC[C@H]3O[C@@H](CC(=O)NCCCN4CCOCC4)CC[C@@H]32)cc1 | inactive: 0.976
63 | NNS(=O)(=O)c1ccc(Oc2ccc(S(=O)(=O)NN)cc2)cc1 | inactive: 1.01
64 | C[C@@H]1CN([C@H](C)CO)C(=O)Cc2cc(NS(=O)(=O)c3cn(C)cn3)ccc2O[C@@H]1CN(C)Cc1ccc(C(=O)O)cc1 | inactive: 1.03
65 | Cc1noc(C)c1NC(=O)N(C)C[C@@H]1Oc2ccc(NC(=O)Cn3cnnn3)cc2C(=O)N([C@@H](C)CO)C[C@@H]1C | inactive: 0.989
66 | CC(NC(CCc1ccccc1)C(=O)O)C(=O)N1Cc2ccccc2CC1C(=O)O (configuration not stated) | inactive: 1.08
67 | ON=C1/C(=N\O)CC2(C/C1=N/O)OCCO2 | inactive: 0.832
